Hit rate of the full screen: of about 45,000 compounds, about 200 (0.44%) were called active. Inconclusive results (about 7%) are left out. The call rests on the fitted dose curve; in most records, active means well fitted activation curve with a large enough effect; inconclusive means small, poorly fitted or top-dose-only effect; inactive means no such curve, though single readings can be large or run the other way. The list shows a part of the results.
assay: qHTS of TDP-43 Inhibitors: NCGC Sytravon Library Screen; conditions: yeast TDP-43 toxicity rescue, BacTiter-Glo growth, 24 h; series mostly up to 46.1 µM; growth rescue (activation): at the top concentration; further: 0% is about no effect; nearly all actives have a fitted effect of over 55% in size
Outline: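 TDP-43-expressing yeast, pregrown in raffinose, seeded at OD600 0.02 in galactose medium with compound for 24 hr at 30 deg C. Growth read by BacTiter-Glo luminescence, so rescue of toxicity appears as activation.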

| SMILES | growth rescue (activation) |
| --- | --- |
| CCN(CC)C(=O)c1nn(-c2ccccc2)c2c1C1CCC2(C)C1(C)C (centres undefined) | inactive: 4.17% |
| Cc1ccc(S(=O)(=O)N2CCN(C(=O)CSc3nncs3)CC2)cc1 | inactive: 20.6% |
| O=C(COc1ccc([N+](=O)[O-])cc1)NNC(=O)c1cccnc1 | inactive: -3.01% |
| COc1ccc(CNC(=O)C2CCN(S(=O)(=O)c3ccc(-c4nn[nH]n4)cc3)CC2)cc1 | inactive: -21.8% |
| CCc1onc(C)c1C(=O)O | inactive: 0.261% |
| CC(C)n1nc(C(=O)NCc2ccc3c(c2)OCO3)c2ccccc2c1=O | inactive: 26.6% |
| Cc1cc(Cl)ccc1NC(=S)NCCN1CCOCC1 | inactive: 5.77% |
| CCN(CC)c1c(C)nc2ccc(C(=O)NCc3ccc4c(c3)OCO4)cn12 | inactive: 1.14% |
| COc1ccc(CCNC(=O)Cn2c(=O)c3sccc3n(CC(=O)Nc3cccc(C(F)(F)F)c3)c2=O)cc1OC | inactive: -6.03% |
| O=C(Nc1c(Cl)ccc2nsnc12)c1ccco1 | inactive: -13.6% |
| Cc1c(Br)cccc1NC(=O)c1sccc1-n1cccc1 | inactive: 38.5% |
| CCc1cccc2c(C(=O)CSc3nnc(-c4ccncc4)n3C)c[nH]c12 | inactive: 1.07% |
| CCCC(CCC)c1nc2ccncc2[nH]1 | inactive: -5.43% |
| CCN1CCCC1CNCc1cccc(OC)c1OCc1ccccc1 (centres undefined) | inactive: 5.72% |
| CCOc1ccc(S(=O)(=O)N2CCC(C(=O)NCc3cccnc3)CC2)cc1C | inactive: 13.2% |
| N#Cc1c(-c2ccccc2)nc(N2CCN(Cc3ccccc3)CC2)[nH]c1=O | inactive: -5.06% |
| S=C1NC2(CCCC2)Nc2ccccc21 | inactive: 22.7% |
| COc1ccccc1NC(=S)N/N=C/c1cccc(C)c1 | inactive: 24.7% |
| CN(C)c1cccc(CNC(=O)c2csc([C@@H]3C[C@H](O)[C@@H](CO)O3)n2)c1 | inactive: -8.23% |
| COc1cc(/C=N/N2CCN(C3c4ccccc4-c4ccccc43)CC2)cc(OC)c1O | inactive: 25.6% |
| COc1ccc(NC(=O)c2cc(-c3cccs3)on2)cc1 | inactive: -6.82% |
| O=C(NCCN1CCOCC1)/C(=C/c1ccc(Cl)cc1)NC(=O)c1ccccc1 | inactive: 0.747% |
| O=C(O)CC/C(=C/c1cccc(NC(=O)c2ccccc2Cl)c1)c1nc2ccccc2s1 | inactive: -2.83% |
| COc1ccc(C2c3ccc(O)cc3Oc3ncn(CCN4CCOCC4)c(=N)c32)cc1OC (centres undefined) | inactive: 9.48% |
| COc1cccc(C(=O)N(Cc2ccc(N(C)C)cc2)Cc2ccco2)c1 | inactive: 9.25% |
| NC(=O)c1cccc(-c2ccnc3c2CC(C(=O)NCC2CC2)O3)c1 (centres undefined) | inactive: 16.2% |
| Cc1oc2cc3oc(=O)c(CC(=O)NCCCC(=O)O)c(C)c3cc2c1C | inactive: 9.81% |

| SMILES | growth rescue (activation) |
| --- | --- |
| COc1cn(-c2ccccc2)nc1C(=O)NCc1ccccc1 | inactive: 2.37% |
| Cc1ccc(CCN2CC(C(=O)NCc3ccco3)CC2=O)cc1 (centres undefined) | inactive: 4.25% |
| Cc1ccc2sc(N(CCCN(C)C)C(=O)c3ccco3)nc2c1C | inactive: 3.73% |
| Cc1ccc(Oc2ccc(OCC(=O)NC3CCS(=O)(=O)C3)cc2)cc1 (centres undefined) | inactive: -1.1% |
| CCOC(=O)C1=C(C(F)(F)F)Nc2ncnn2C1c1cc(OC)c(OC)cc1OC (centres undefined) | inactive: 14.8% |
| COC(=O)c1cn(C(=O)/C=C/c2ccc(OC)c(OC)c2)c2ccccc12 | inactive: 6.31% |
| COc1ccc(C(=O)NCC(=O)NCc2ccncc2)cc1 | inactive: 22.5% |
| Cc1ccccc1NC(=O)CN1CCC(C(=O)c2ccc3c(c2)OCCO3)CC1 | inactive: 6.82% |
| O=C(O)c1ccccc1NS(=O)(=O)c1ccc2ccccc2c1 | inactive: -1.34% |
| Cc1ccccc1NC(=S)N(Cc1ccco1)C(C)c1cccs1 (centres undefined) | inactive: 7.51% |
| Cc1cccc(-c2nc3cc(NC(=O)c4ccc(OCC(C)C)cc4)ccc3o2)c1 | inactive: 4.87% |
| Cc1ccn2c(c1)nc(=O)c1cc(S(=O)(=O)N3CCCCC3)ccc12 | inactive: 3.78% |
| O=C(c1ccccc1)c1c(O)cc(-c2ccccc2)oc1=O | inactive: -20% |
| O=C(Nc1ccc(S(=O)(=O)N2CCCC2)cc1)c1ccc2c(=O)n3c(nc2c1)CCCCC3 | inactive: 8.31% |
| O=C(CSc1ccccn1)N1CCNC1=O | inactive: 8.49% |
| Cn1nnnc1SCC(=O)Nc1cc(S(=O)(=O)N2CCCCC2)ccc1Cl | inactive: -10.5% |
| COc1ccc(/C=N/Nc2cc(OC)ncn2)cc1 | inactive: 22.6% |
| CCN(C(=O)COC(=O)/C=C/c1ccc(S(=O)(=O)N2CCc3ccccc32)cc1)C1CCS(=O)(=O)C1 (centres undefined) | inactive: -5.91% |
| CCN1CCN(C(=O)NCc2ccccc2)CC1 | inactive: -10% |
| CCOC(=O)c1cccc(NC(=O)c2ccc(-n3cnnn3)cc2)c1 | inactive: 14.6% |
| O=[N+]([O-])c1ccc(COn2nnc3ccccc32)cc1 | inactive: 18.2% |
| O=C(CCl)NNC(=O)c1c(O)c2ccccc2[nH]c1=O | inactive: -7.57% |
| CCOC(=O)Cc1nnc(NC(=O)CSc2nc3ccccc3[nH]2)s1 | inactive: 29.4% |
| Cc1c(C(=O)N(C)Cc2ccc(OC(F)F)cc2)oc2ccccc12 | inactive: 32% |
| CN1CCN(C(=O)C2C3C=CC(C3)C2C(=O)O)CC1 (centres undefined) | inactive: 12.9% |
| COc1ccc([N+](=O)[O-])cc1NC(=O)CCCOc1ccccc1 | inactive: 19.6% |
| Cc1ccc(S(=O)(=O)N(C)C)cc1NC(=S)N(CCC#N)Cc1cccnc1 | inactive: 0.794% |

From PubChem BioAssay AID1347073 (National Center for Advancing Translational Sciences (NCATS), 2019)
